In all, about 360,000 compounds went through this assay and about 17,000 (4.7%) were called active. Inconclusive means that the source gave no clear call. Such entries were picked first, then a sample of the others. No stated cut-off is given here; in the data, active means activity change below about -50%; inconclusive means mostly about -30% to -49%; inactive means weaker than that.
Experiment: qHTS for Inhibitors of Inflammasome Signaling: IL-1-beta AlphaLISA Primary Screen
Conditions: THP-1 LPS/ATP IL-1B secretion, 16 h; at 57.5 µM, stronger effect = lower value
In short: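 Secreted IL-1B measured by AlphaLISA bead assay after 16 h compound exposure of THP-1 cells; compounds (final up to 57.5 uM) added 1 h before LPS (250 ng/mL) and ATP (1.25 mM) stimulation; lower signal means less secretion.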
In the case of `Cn1c(=O)c2[nH]c(Cc3cccc4ccccc34)nc2n(C)c1=O`, the activity change is reported as inactive: 19.1%.
For `Cc1ccc([C@H]2C(C(=O)O)=CCN2S(=O)(=O)c2ccc(C)cc2)cc1`, the activity change was inactive: 38.7%.
For `CCN(CC)S(=O)(=O)c1ccc(C(=O)NNc2nc(-c3ccccc3)c3cc(Br)ccc3n2)cc1`, the activity change was inconclusive: -37.7%.
In the case of `CN1C2CCC1CC(N(CCc1ccccc1)C(=O)c1ccc(Cl)cc1)C2` (stereo not drawn), the activity change is reported as inconclusive: -31.2%.
In the case of `N#C/C(=C\c1ccc(-c2ccc(Br)cc2)o1)C(=O)NCCc1c[nH]c2ccccc12`, the activity change is reported as active: -61.2%.
For `COc1ccccc1CNC(=O)C1CCC(CNc2c(N3CCC(C)CC3)c(=O)c2=O)CC1` (stereo not drawn), the activity change was inconclusive: -39.8%.
For `COc1ccc2[nH]c3c(C)c4ccncc4c(C)c3c2c1`, the activity change was active: -100%.
With `CC1CCc2c(sc3ncnc(NCCCOC(C)C)c23)C1` (stereo not drawn) the activity change was inconclusive: -37.8%.
For `CCCCc1ccc(S(=O)(=O)NCCCN2CCCC2=O)cc1`, the activity change was inactive: 13.6%.
With `CCn1nc(C(=O)Nc2nc(-c3ccccn3)cs2)c2ccccc2c1=O` the activity change was inactive: 1.31%.
For `CCOCCCNC(=O)C(NC(=O)c1ccccc1O)c1ccc(C)cc1` (stereo not drawn), the activity change was inconclusive: -36.4%.
In the case of `CCC1CCCCN1C(=O)CSc1nnc(N)s1` (stereo not drawn), the activity change is reported as inactive: 10.5%.
For `Cc1cc(C)[n+](C)n1CC(O)Cn1c2ccccc2c2ccccc21` (stereo not drawn), the activity change was active: -63.5%.
With `O=C(/C=C/c1ccccc1)c1ccccc1` the activity change was inconclusive: -35.1%.
In the case of `Cc1ccc(OCCNC(=O)c2ccc(C)cc2)cc1`, the activity change is reported as inactive: 0%.
In the case of `COc1ccc(N(C)S(=O)(=O)c2cccc(C(=O)Nc3nc4ccccc4[nH]3)c2)cc1`, the activity change is reported as inconclusive: -49.4%.
For `Cc1ccc(-c2csc3nc4c5ccccc5c(NCCCN(C)C)nn4c(=O)c23)cc1`, the activity change was inconclusive: -36.4%.
With `COC(=O)/C=C1\OCc2cccc(C)c21` the activity change was inconclusive: -39.8%.
In the case of `Cn1c(=O)c([N+](=O)[O-])c(-n2cnc3ccccc32)c2ccccc21`, the activity change is reported as active: -98.2%.
For `Cc1ccsc1C(=O)N1CCC(CO)(Cc2ccccc2)CC1`, the activity change was inconclusive: -34.1%.
With `CCOc1ccc(CNC(=O)C2Cc3cc(S(=O)(=O)N4CCCCC4)ccc3N2C(C)=O)cc1` (stereo not drawn) the activity change was inconclusive: -40.9%.
With `NC1=NC[C@@H](CC2CCCCC2)N1CCc1cc(C(F)(F)F)cc(C(F)(F)F)c1` the activity change was active: -109%.
For `COc1ccc(/C=C/C(=O)Nc2cccnc2Cl)cc1`, the activity change was inactive: 0%.
For `CCOC(=O)c1c(CSC(=N)N)n(-c2ccc(Br)cc2)c2cc(Br)c(OC(C)=O)cc12`, the activity change was active: -109%.
For `O=C1Nc2ccc(Cl)cc2C(=O)C1(F)c1ccccc1` (stereo not drawn), the activity change was inconclusive: -46.6%.
For `COC(=O)[C@H]1C[C@@]2(O)CN(S(=O)(=O)c3ccc(C)cc3)C[C@@]2(OC(=O)Nc2cccs2)C[C@H]1C(=O)OC`, the activity change was inconclusive: -49.8%.
For `COc1cc(-c2c(C#N)c(N)nc3c2CCCC3)cc(OC)c1OC`, the activity change was inconclusive: -48.2%.
With `Cc1ccc2cc(C)c(SCC#N)nc2c1` the activity change was inconclusive: -30.9%.
For `COc1ccc(C(=O)Cc2ccc(OC)c(OC)c2)c(OC)c1`, the activity change was inconclusive: -42.3%.
With `CN1CCC(=C(c2ccc(Cl)cc2)c2ccccn2)CC1` the activity change was inconclusive: -46.3%.
With `C=CCn1c(=O)/c(=C\c2ccsc2)s/c1=C(/C#N)C(=O)NCCN1CCOCC1` the activity change was inconclusive: -36.1%.
For `Cn1c(=O)c2c(nc(SCc3ccccc3)n2Cc2ccc(Cl)cc2)n(C)c1=O`, the activity change was inconclusive: -36.6%.
For `CC12CCC(=O)N1C(C(=O)Nc1nc3ccc(Cl)cc3s1)CS2` (stereo not drawn), the activity change was active: -84%.
In the case of `Cc1ccc(-c2cn(-c3ccc(SC(F)F)cc3)c3[n+]2CCC3)cc1`, the activity change is reported as inconclusive: -36.2%.
In the case of `CCOC(=O)N1CCN(C(=O)c2cc(COc3ccc4ncccc4c3)on2)CC1`, the activity change is reported as inactive: -9.81%.
With `O=C(Nc1ccncc1)c1sc2ccccc2c1Cl` the activity change was active: -55.4%.
With `CN1C[C@@H]2C(c3ccccc3)C3(c4cccnc4)CC2(C3)[C@H]1c1ccccc1` (stereo partly drawn) the activity change was inactive: -1.45%.
With `O=C(Nc1c2c(nn1-c1ccc(Cl)cc1)CS(=O)(=O)C2)c1ccc2c(c1)OCO2` the activity change was inactive: -3.36%.
In the case of `CC(OC(=O)c1nc(Cl)ccc1Cl)C(=O)Nc1ccc2c(c1)OCCO2` (stereo not drawn), the activity change is reported as inactive: 24.5%.
With `Cc1oc(-c2cccc(Cl)c2)nc1CN1CCCC(C(=O)NC(C)c2ccc3c(c2)OCCO3)C1` (stereo not drawn) the activity change was inconclusive: -40.9%.
In the case of `CC(C)(C)NC(=S)N1CCC2CC1c1cc(-c3ccc4c(c3)OCO4)ccc12` (stereo not drawn), the activity change is reported as inactive: -1.69%.
In the case of `CCN(CC)c1cc(CS(=O)c2ccccc2)nc(-c2ccccc2)n1` (stereo not drawn), the activity change is reported as active: -50.1%.
For `Cc1ccc(NCC(=O)Nc2cccc(S(=O)(=O)N(C)C)c2)cc1S(=O)(=O)N1CCCCCC1`, the activity change was inconclusive: -36.2%.
In the case of `Cc1nn(Cc2ccc([N+](=O)[O-])cc2)c(=O)n1-c1ccc(Cl)cc1`, the activity change is reported as inactive: 25.7%.
With `CCCCCC(=O)N1C[C@H](O)[C@@H](n2cc(-c3ccc(F)cc3)nn2)C[C@@H]1c1ccc(C)cc1` the activity change was inconclusive: -47.1%.
In the case of `CCOC(=O)C1=C(C)NC(C)=C(C(=O)OCC)C1C(=O)OCC(=O)NC1CCCCC1`, the activity change is reported as inconclusive: -46%.
For `O=C(C[C@H]1C[C@H](C(=O)N2CCOCC2)[C@@]2(CCC3CCCC3)c3[nH]c4cc(-c5ccco5)ccc4c3CCN2C1=O)NCC12CC3CC(CC(C3)C1)C2`, the activity change was inconclusive: -43.7%.
With `CCOCCOC(=O)NCCCCCCNC(=O)OCCOCC` the activity change was inconclusive: -31.5%.
For `CN(C(=O)CSc1nc2ccccc2n1CCc1ccccc1)C1CCS(=O)(=O)C1` (stereo not drawn), the activity change was inconclusive: -30%.
For `COc1ccc(/C=N/NC(=O)c2nnn(-c3nonc3N)c2C)cc1OC`, the activity change was inactive: -3.68%.
For `Cc1ccc(C(=O)NC(=S)c2c(C)cc3ccccn23)cc1`, the activity change was inactive: -12.2%.
With `CCOc1ccc(C(=O)NCC(=O)Nc2cc(C)ccn2)cc1OCC` the activity change was inconclusive: -42.5%.
In the case of `CCc1cc2c(NCC3CCCO3)nc(C)nc2s1` (stereo not drawn), the activity change is reported as inactive: 3.67%.
In the case of `O=C(C1CCCO1)N1CCN(Cc2c(O)ccc3ccccc23)CC1` (stereo not drawn), the activity change is reported as inconclusive: -48.6%.
In the case of `Cc1cccc(C(=O)NNC(=O)c2ccc3ccccc3c2)c1`, the activity change is reported as inconclusive: -37.1%.
For `C=CCn1c(C)cc(-c2csc(NC)n2)c1C`, the activity change was active: -96.4%.
In the case of `Cn1nc(C(=O)Nc2nc(-c3ccc(F)cc3)cs2)ccc1=O`, the activity change is reported as inconclusive: -37.3%.
In the case of `Cc1nc2ccc(NC(=O)N3CCCCC3)cc2nc1C`, the activity change is reported as inactive: -5.54%.
In the case of `O=[N+]([O-])c1cc(/C=N/NC(=S)Nc2ccccc2Cl)ccc1Cl`, the activity change is reported as active: -85.8%.
For `O=C(NC12CC3CC(CC(C3)C1)C2)c1ccc(-c2ccc(Br)cc2)o1`, the activity change was inconclusive: -39.5%.
In the case of `CN1CCN(C2=Cc3ccccc3Sc3cc(F)ccc32)CC1`, the activity change is reported as inconclusive: -41.8%.
In the case of `Cc1cccc(NC(=S)N(Cc2cccs2)Cc2cc3cc(C)cc(C)c3[nH]c2=O)c1`, the activity change is reported as inactive: 2.71%.
In the case of `CCOc1ccccc1CN1CCCC(C(=O)Nc2cccc(-n3cccn3)c2)C1` (stereo not drawn), the activity change is reported as inconclusive: -43.3%.
In the case of `CCOc1ccc(S(=O)(=O)Nc2cccc(C(=O)NCC3(N4CCCCC4)CCCCC3)c2)cc1`, the activity change is reported as inconclusive: -49.1%.
With `Cc1cc(NCc2ccccc2)c2ccccc2n1` the activity change was inconclusive: -30.4%.
With `O=C(c1ccccc1)N1CCN(C2C3CC4CC(C3)CC2C4)CC1` (stereo not drawn) the activity change was inconclusive: -34.8%.
With `O=C(c1ccoc1)N1CCC2(CC1)Oc1ccc(Cl)cc1C(=O)C21CC(c2ccc(Cl)cc2)=NO1` (stereo not drawn) the activity change was inconclusive: -35.1%.
In the case of `O=C(NCc1ccccc1)NC(=O)c1ccccc1`, the activity change is reported as inconclusive: -38.1%.
With `O=C(/C=C/c1ccccn1)c1cc(Br)ccc1O` the activity change was inconclusive: -36.7%.
For `COc1ccccc1N1CCN(C(=O)c2ccc3c(=O)n4c(nc3c2)CCCCC4)CC1`, the activity change was inconclusive: -41.8%.
With `C/C(=N\NC(N)=S)c1cc(-c2ccccc2)c(-c2ccccc2)s1` the activity change was inconclusive: -40.9%.
For `Cc1nc([N+](=O)[O-])c(Br)n1CC(=O)c1ccc2ccccc2c1`, the activity change was active: -120%.
With `CC(C)NC(=O)c1cc(-c2cccs2)nc2ccccc12` the activity change was inactive: -7.68%.
For `O=C(O)CSc1cccc[n+]1[O-]`, the activity change was inactive: -14%.
With `O=C(CCSc1ccccc1)N1CCN(c2ccccc2)CC1` the activity change was inactive: 3.55%.
For `COc1ccc(-c2ccc(C#N)c(SCC(=O)OCc3ccccc3)n2)cc1OC`, the activity change was inactive: -16.7%.
For `CC(=O)c1c(O)cc2c3c1OC(C)(C)C1CCC(C)(CC31)O2` (stereo not drawn), the activity change was inactive: 1.98%.
With `COc1cc(CNc2ccc3[nH]c(=O)[nH]c3c2)ccc1OCc1ccccc1Cl` the activity change was inconclusive: -39.6%.
With `O=C1C=C(Nc2ccccc2O)c2ccccc2C1=O` the activity change was active: -90.3%.
In the case of `Cc1cccc(-c2nc3c(c(SCC(=O)N4CCOCC4)n2)Cc2c(CO)cnc(C)c2O3)c1`, the activity change is reported as inconclusive: -42.7%.
For `Clc1ccc2c(NCCNC3CCCCC3)ccnc2c1`, the activity change was active: -95.4%.
With `CCOc1ccc(N=C(C)C2=C(O)c3ccccc3C2=O)cc1` the activity change was inconclusive: -38.8%.
For `COc1cc2c(cc1OC)[C@@H](NC(=O)CCc1ccccc1)[C@H](OCc1ccccc1)C2`, the activity change was inactive: -20.6%.
For `COc1ccc(N(CC(=O)NCCSCc2ccco2)S(=O)(=O)c2ccccc2)cc1OC`, the activity change was inactive: -14.1%.
In the case of `CC(=O)C1=C(O)C(=O)N(c2nnn(C)n2)C1c1cccs1` (stereo not drawn), the activity change is reported as inactive: 14.9%.
For `CC(=O)Nc1ccc(-c2nnn(CC(=O)c3ccc(F)cc3)n2)cc1Cl`, the activity change was inconclusive: -33.6%.
In the case of `CN(C)C(=O)COc1ccc2cc(-c3ccccc3)c(=O)oc2c1`, the activity change is reported as inactive: -16.1%.
For `CC1CC(C)CN(C(=O)Nc2ccc(Br)cc2)C1` (stereo not drawn), the activity change was inconclusive: -31.7%.
On the % scale 0 is the no-effect control and ±100 the full control effect.
